We go through 87 molecules from PubChem BioAssay AID463173 (ICCB-Longwood Screening Facility, Harvard Medical School, 2010).

Among all 52,000 compounds or so, about 1,700 (3.3%) were called active. No stated cut-off is given here; in the data, active means survival mostly below about 52% (no sharp cut-off); inactive means mostly above about 56%. The list shows a part of the results.

The test system of the experiment is Wild type. Briefly: growth inhibition of S. aureus wild type versus tarO mutant, primary screen, teichoic acid synthesis inhibitors, RN4220, OD600 (AID 463173). Particulars: S. aureus RN4220 wild type/DeltatarO growth, OD600, 18 h, hits give low values, screened at 18.75 µg/mL (by protocol).
Take `CCN(c1ccccc1C)S(=O)(=O)c1ccc(N2CCCCS2(=O)=O)cc1`: the survival was inactive: 140%.
The result for `c1ccc(N2CCN(Cc3cccn3-c3nnc(N4CCN(C5CCCCC5)CC4)s3)CC2)cc1` reads inactive: 88%; that for `CCc1ccccc1NS(=O)(=O)c1ccc2c(c1)CCN2C(=O)C1CC1`, inactive: 72%.
In the case of `CCc1ccc(-c2nn(CC(=O)NC3CCCCC3)c3c2cnc2ccc(C)cc23)cc1`, the survival is inactive: 73%.
The result for `CCOc1ccc(CCNC(=O)c2nn(-c3ccc(OC)c(Cl)c3)c(=O)c3c2c2ccccc2n3C)cc1OCC` reads inactive: 88%; that for `O=C(c1ccco1)N1CCN(Cc2cccc(Br)c2)CC1`, inactive: 94%.
Then `COc1ccccc1NC(=O)NC1(C(=O)N2CCc3ccccc32)CCCCC1`, with inactive: 102%.
Then `Cc1nn(-c2ccccc2)c(-n2cccc2)c1C(=O)NCCc1ccc(Cl)cc1`, with active: 2%.
For `Cn1c(=O)c2cc(C(=O)NCCCN3CCN(c4cccc(Cl)c4)CC3)sc2c2ccccc21`, the survival is inactive: 63%.
The result for `O=C(COc1ccc(Br)cc1Cl)Nc1ncn[nH]1` reads inactive: 74%; that for `CN=C1SC(CC(=O)NC)C(=O)N1C` (configuration not stated), inactive: 110%; that for `O=C(Nc1ccc(Br)cc1)c1ccc(F)c(S(=O)(=O)N2CCCc3ccccc32)c1`, inactive: 57%.
The result for `CC(=O)Nc1ccc(N(C)C(C)=O)cc1` reads inactive: 110%; that for `CC(C)Cn1c(=O)c2sccc2n2c(CCCC(=O)NCCc3ccc(Cl)cc3)nnc12`, inactive: 96%; that for `CC(C)NC(=O)c1ccc(-n2c(-c3ccccc3)cc3c2CCCC3)cc1`, inactive: 86%.
The result for `COCCCNC1CC(=O)N(c2ccc(OC)cc2)C1=O` (configuration not stated) reads inactive: 117%; that for `CCc1ccc(NC(=O)CSc2nc(-c3ccccc3Cl)nc3c2Cc2c(CO)cnc(C)c2O3)cc1`, inactive: 108%.
As to `COc1ccc(OCC(=O)Nc2ccc3c(c2)nc(CCNC(=O)c2ccco2)n3C)cc1`, the survival is inactive: 98%.
For `CCc1ccc2nc(N(Cc3cccnc3)C(C)=O)sc2c1`, the survival was inactive: 90%.
The result for `CCOC(=O)c1ccc(CN(Cc2ccc(Cl)cc2Cl)S(=O)(=O)c2ccc(F)c(C)c2)cc1` reads inactive: 113%.
Then `Cc1ccccc1OCCCn1c(-c2ccc(Cl)cc2)nc2ccccc2c1=O`, with inactive: 73%.
Then `O=C(Nc1nnc(S(=O)(=O)N2CCCC2)s1)c1ccccc1Br`, with inactive: 69%; and `Cn1c(=O)oc2cc(S(=O)(=O)N3CCC(C(=O)NCc4ccc(F)cc4)CC3)ccc21`, with inactive: 84%.
With `COc1ccc(Nc2nc3cc(Cl)c(Cl)cc3n3cnnc23)cc1Cl`, the survival was inactive: 88%.
Then `CCOC(=O)c1ccc(NC(=O)CSc2nnc(CNC(=O)c3ccc(OC)cc3)n2CC)cc1`, with inactive: 134%; and `CC(C(=O)NCc1ccc2c(c1)OCO2)N(c1ccccc1)S(C)(=O)=O` (configuration not stated), with inactive: 115%; and `COc1ccc(NC(=O)CC2C(=O)N(c3ccc(C)cc3)C(=O)N2Cc2ccc3c(c2)OCO3)cc1` (configuration not stated), with inactive: 133%.
Consider `CCOC(=O)C1CCN(Cc2cn[nH]c2-c2ccc(C)cc2)CC1`, for which the survival was inactive: 106%.
The result for `Cc1ccccc1Cn1nnc2c(=O)[nH]c(C3CCCN(C(=O)c4ccc(F)cc4)C3)nc21` (configuration not stated) reads inactive: 120%.
The result for `COc1ccc(N2CCN(S(=O)(=O)c3ccc4c(c3)CCCN4C(C)=O)CC2)cc1` reads inactive: 65%.
The result for `Nc1cc(=O)[nH]c(=S)n1-c1ccccc1` reads inactive: 103%; that for `CCC(C)n1c(SCc2c(F)cccc2Cl)nc2ccsc2c1=O` (configuration not stated), inactive: 131%; that for `CC1CCN(CCCNC(=O)c2cn(C)c3ccc(S(=O)(=O)N(C)C4CCCCC4)cc3c2=O)CC1`, inactive: 136%.
For the molecule `COc1cc2c(cc1OC)C(COc1ccc(C(C)C)cc1)N(C(=O)c1ccc(S(=O)(=O)N3CCCC3)cc1)CC2` (configuration not stated), the survival was inactive: 78%.
Then `Cc1ccc(C)c(CN2C(=O)c3ccccc3S(=O)c3ccc(C(=O)N4CCN(c5ccccc5F)CC4)cc32)c1` (configuration not stated), with inactive: 89%.
Then `COc1cc(N2C(=O)CSC23C(=O)N(Cc2ccc(C)cc2)c2ccccc23)cc(OC)c1OC` (configuration not stated), with inactive: 72%.
Then `Cc1ccc2c(c1)N(C(=O)CCC(=O)NCc1cccs1)CCO2`, with inactive: 82%.
As for `COc1ccc(Br)c(C(=O)Nc2cc3c(cc2N2CCCCC2)n(C)c(=O)c(=O)n3C)c1`, the survival was inactive: 73%.
In the case of `CCc1cc(C(=O)NC(C)c2ccccc2)no1` (configuration not stated), the survival was inactive: 71%.
The result for `COC(=O)c1cc(NC(=O)[C@H](CCS(C)(=O)=O)N2Cc3ccccc3C2=O)cc(C(=O)OC)c1` reads inactive: 87%; that for `CCc1ccc(-c2nc3cc(NC(=O)c4cc5ccccc5cc4OC)ccc3o2)cc1`, active: 14%.
The result for `COc1cc2c(cc1OC)C(COc1ccc(F)cc1)N(C(=O)c1ccc(S(=O)(=O)N3CCCC3)cc1)CC2` (configuration not stated) reads inactive: 88%; that for `COc1cc(C2CC(=O)N(Cc3ccc(F)cc3)c3ccccc3S2)cc(OC)c1OC` (configuration not stated), inactive: 72%; that for `O=C(CCCn1c(=O)c2ccccc2n(Cc2ccc(F)cc2Cl)c1=O)NCCc1ccc(Cl)cc1`, inactive: 88%.
Then `COC(=O)c1ccccc1NC(=O)c1nc(S(=O)(=O)Cc2cccc(C)c2)ncc1Cl`, with inactive: 73%.
Take `COc1ccc(NC2CC(O)C(CO)O2)cc1` (configuration not stated): the survival was inactive: 114%.
The result for `COC(=O)c1ccccc1NC(=O)c1ccc2nc(Cc3ccccc3)oc2c1` reads inactive: 75%.
For the molecule `CC1CCc2c(sc3ncnc(NCCOCCO)c23)C1` (configuration not stated), the survival was inactive: 106%.
Then `Cc1ccc(-n2nc(CO)c(C(=O)NCc3cccs3)n2)cc1C`, with inactive: 85%.
Then `CC(=O)Nc1ccc(NC(=O)c2ccc(COc3ccc(Cl)cc3Cl)o2)cc1`, with inactive: 81%.
As for `Cc1cccc(NC(=O)c2c(C)cc(C)nc2SCC(=O)Nc2c(C)cc(C)cc2C)c1`, the survival is inactive: 83%.
The result for `CCOc1ccc(-c2cc(-c3nc(-c4cc(OC)c(OC)c(OC)c4)no3)[nH]n2)cc1Cl` reads inactive: 80%; that for `COc1ccc(C)cc1NC(=O)C1CCN(S(=O)(=O)c2ccc3[nH]c4c(c3c2)CCCCC4)CC1`, inactive: 74%.
`Nc1cc(=O)nc(SCC(=O)Nc2ccc(F)cc2)n1-c1ccccc1Cl`: the survival was inactive: 76%.
The result for `O=C(COc1ccc([N+](=O)[O-])cc1)NCC1(N2CCOCC2)CCCCC1` reads inactive: 96%.
The result for `Cc1cc(C)cc(NC(=O)CCCN2C(=O)COc3ccc(C)cc32)c1` reads inactive: 77%.
The result for `COc1ccc(CC(=O)NC2CCN(Cc3nnnn3C(C)(C)C)CC2)cc1OC` reads inactive: 124%; that for `Oc1c(C(c2ccccc2F)N2CCCCC2)sc2nc(-c3ccco3)nn12` (configuration not stated), inactive: 70%.
As for `CC(=O)c1cccc(NC(=O)CSc2nc(=O)n(Cc3cccnc3)c3c2CCC3)c1`, the survival was inactive: 70%.
Then `CC1/C(=N/O)CC(c2ccco2)NC1c1ccco1` (configuration not stated), with inactive: 113%; and `CC(C)c1ccc(NC(=O)C2CCN(c3nc(-c4ccc(C(C)C)cc4)no3)CC2)cc1`, with inactive: 119%.
The result for `CCCCc1nc2ccccc2n2c(-c3ccc(OC)cc3)c3c(=O)n(C)c(=O)n(C)c3c12` reads inactive: 52%; that for `Cc1c(C(=O)N2CCC(C)CC2)c(S(=O)(=O)NCc2ccc(Br)cc2)c(C)n1C`, inactive: 80%; that for `CC(C)CC(=O)Nc1ccc(S(=O)(=O)Nc2cc3c(cc2N2CCOCC2)n(C)c(=O)c(=O)n3C)cc1`, inactive: 60%.
Then `Cc1ccc(NC(=O)c2cn3c4c(ccc(Cl)c4c2=O)OC(C)C3)c(C)c1` (configuration not stated), with inactive: 71%; and `COc1ccc(OC)c(/C=N/c2ncn[nH]2)c1`, with inactive: 105%; and `O=C(CCc1cn(Cc2ccccc2Cl)c2ccccc12)NC1CCCCC1`, with inactive: 82%.
Turning to `COc1ccc(-n2ncc(C(=O)N3CCN(c4ncccn4)CC3)c2C2CCN(C(=O)OC(C)(C)C)CC2)cc1`, the survival was inactive: 72%.
Regarding `Cc1ccccc1Nc1c(-c2ccc(Cl)s2)nc2c(C)cccn12`, the survival was inactive: 69%.
As to `COc1ccc(CNC(=O)c2cc(-c3cccc(Cl)c3)on2)cc1`, the survival was inactive: 85%.
Then `CC(C)(C)OC(=O)N1CCC(c2c(C(=O)NCCCN3CCc4ccccc4C3)cnn2-c2ccccc2)CC1`, with inactive: 87%.
With `Cc1ccc(N2CC(NC(=O)c3ccc(S(=O)(=O)N4CCCC4)cc3)CC2=O)cc1` (configuration not stated), the survival is inactive: 66%.
Then `CCOc1ccccc1NC(=O)Cn1c(=O)n(CCCC(=O)NCCc2ccc(C)cc2)c(=O)c2ccccc21`, with inactive: 92%; and `COc1ccc(-c2c(C)c3cc(OC(=O)N4CCOCC4)ccc3oc2=O)cc1`, with inactive: 71%; and `COc1ccc(OC)c(NC(=O)CCc2c(C)nn(-c3ccc(N4CCCC4)nn3)c2C)c1`, with inactive: 132%.
The result for `CC(C)c1ccc(NC(=O)c2ccc3c(c2)CCCN3S(C)(=O)=O)cc1` reads inactive: 86%; that for `COc1ccc(-c2nc(C)c(CCNC(=O)C(=O)Nc3c(C)cccc3C)s2)cc1OC`, inactive: 87%.
The result for `O=C(Cn1cc(SCc2ccccc2)c2ccccc21)N1CCCCC1` reads inactive: 92%; that for `COc1ccc(OC)c(CCNC(=O)C2CCN(c3ncnc4c3nc3n4CCCCC3)CC2)c1`, inactive: 87%; that for `CSc1ccc(CNC(=O)C2CCN(c3nnc(-n4cccc4CNc4ccc(C)cc4)s3)CC2)cc1`, inactive: 116%.
As for `N#Cc1c(-n2ncnc2-c2ccc(Br)cc2)sc2c1CCCCC2`, the survival was active: 2%.
The result for `CCc1ccc(CNC(=O)CN(c2ccc(C)cc2)S(=O)(=O)N(C)C)cc1` reads inactive: 81%; that for `CCN(CC)S(=O)(=O)c1ccc2c(c1)c(=O)c(C(=O)NCCc1ccc(OC)c(OC)c1)cn2C`, inactive: 79%; that for `COc1cccc(CN(C(=O)c2oc3ccc(Br)cc3c2C)C2CCS(=O)(=O)C2)c1` (configuration not stated), inactive: 69%.
Then `COC(=O)CNC(c1ccccc1)c1cc(Br)ccc1NC(=O)c1ccc(Cl)cc1` (configuration not stated), with inactive: 70%; and `Cc1nc2ccn(Cc3ccccc3)c(=O)c2cc1C(=O)Nc1ccc(F)cc1Cl`, with inactive: 73%.
The result for `CCC(=O)N1CCc2cc(Br)cc(S(=O)(=O)NCc3cccc(OC)c3)c21` reads inactive: 65%.
